Where two headings read alike, the source gives them in different places. No constants are given. Whether binding was seen depends on the method and setting. In cells and extracts the contact can be indirect. Some binding calls cover weakened binding; strength is not graded here. For some of these results: Tags and fused reporters may be left off the sequences shown. Blank lines part the entries; values can stand above or below the molecule they belong to.
What was measured:
GST-ARX (1–220) = GST-ARX (1–220) (UniProt O35085); experiment: pull-down; GST fusion and partner co-expressed in HEK293T/HEK293 cells, lysed in TNE buffer (20 mM Tris-HCl pH 7.4, 150 mM NaCl, 0.5% Triton X-100, 5% glycerol), glutathione-sepharose 4B 45 min on ice, five washes, Western blot
GST-ARX (221–430) = GST-ARX (221–430) (UniProt O35085); experiment: as above
GST-ARX (WT) = GST-ARX (WT) (UniProt O35085); experiment: as above
GST-BCL9 = target: T1, GST-BCL9 (UniProt Q9D219); experiment: as above
T1 sequence: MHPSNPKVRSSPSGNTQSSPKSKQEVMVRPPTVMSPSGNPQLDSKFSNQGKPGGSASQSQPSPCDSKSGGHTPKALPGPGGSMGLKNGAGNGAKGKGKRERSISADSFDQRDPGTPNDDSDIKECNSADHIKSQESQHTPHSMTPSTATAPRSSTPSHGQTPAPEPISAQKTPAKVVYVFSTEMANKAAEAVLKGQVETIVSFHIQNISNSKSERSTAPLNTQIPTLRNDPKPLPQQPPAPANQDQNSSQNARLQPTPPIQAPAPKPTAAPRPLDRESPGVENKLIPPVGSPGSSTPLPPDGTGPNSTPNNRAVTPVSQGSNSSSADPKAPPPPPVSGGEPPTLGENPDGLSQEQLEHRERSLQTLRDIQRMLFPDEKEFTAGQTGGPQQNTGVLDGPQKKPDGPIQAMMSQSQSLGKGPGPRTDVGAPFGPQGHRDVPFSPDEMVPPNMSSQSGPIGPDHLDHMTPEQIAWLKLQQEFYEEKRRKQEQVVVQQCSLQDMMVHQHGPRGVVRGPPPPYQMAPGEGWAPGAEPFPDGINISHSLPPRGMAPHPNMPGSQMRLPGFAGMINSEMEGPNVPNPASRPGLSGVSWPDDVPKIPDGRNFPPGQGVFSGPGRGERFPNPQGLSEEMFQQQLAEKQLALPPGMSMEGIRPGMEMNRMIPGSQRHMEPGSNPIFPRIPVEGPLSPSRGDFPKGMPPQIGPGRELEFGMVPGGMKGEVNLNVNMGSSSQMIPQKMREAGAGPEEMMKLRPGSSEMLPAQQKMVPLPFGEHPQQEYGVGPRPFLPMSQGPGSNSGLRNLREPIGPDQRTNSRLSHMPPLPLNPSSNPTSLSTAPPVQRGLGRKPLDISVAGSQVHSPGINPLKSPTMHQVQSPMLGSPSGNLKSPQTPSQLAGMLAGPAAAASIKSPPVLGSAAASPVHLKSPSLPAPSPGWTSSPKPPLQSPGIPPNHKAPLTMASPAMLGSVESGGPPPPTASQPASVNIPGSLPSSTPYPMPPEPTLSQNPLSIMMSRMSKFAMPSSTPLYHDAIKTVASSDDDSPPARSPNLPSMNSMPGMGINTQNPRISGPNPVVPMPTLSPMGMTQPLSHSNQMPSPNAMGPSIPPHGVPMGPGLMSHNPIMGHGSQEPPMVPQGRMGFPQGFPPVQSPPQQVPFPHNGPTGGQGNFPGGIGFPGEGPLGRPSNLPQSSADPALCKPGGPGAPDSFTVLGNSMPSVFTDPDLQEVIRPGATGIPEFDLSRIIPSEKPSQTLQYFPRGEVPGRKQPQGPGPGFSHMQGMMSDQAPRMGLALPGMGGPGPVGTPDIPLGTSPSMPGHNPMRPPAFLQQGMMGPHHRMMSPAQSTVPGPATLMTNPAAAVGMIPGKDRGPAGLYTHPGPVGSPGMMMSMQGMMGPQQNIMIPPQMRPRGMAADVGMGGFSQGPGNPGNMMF

The chains behind the UniProt entries cited, without tags or fusion partners. Where a name states a change or a piece, a line headed by the entry shows the natural chain unless it says otherwise. A line that says so, or that is headed by a name, gives the form on record, which may keep a tag or linker. Residues count along the entry.
UniProt O35085: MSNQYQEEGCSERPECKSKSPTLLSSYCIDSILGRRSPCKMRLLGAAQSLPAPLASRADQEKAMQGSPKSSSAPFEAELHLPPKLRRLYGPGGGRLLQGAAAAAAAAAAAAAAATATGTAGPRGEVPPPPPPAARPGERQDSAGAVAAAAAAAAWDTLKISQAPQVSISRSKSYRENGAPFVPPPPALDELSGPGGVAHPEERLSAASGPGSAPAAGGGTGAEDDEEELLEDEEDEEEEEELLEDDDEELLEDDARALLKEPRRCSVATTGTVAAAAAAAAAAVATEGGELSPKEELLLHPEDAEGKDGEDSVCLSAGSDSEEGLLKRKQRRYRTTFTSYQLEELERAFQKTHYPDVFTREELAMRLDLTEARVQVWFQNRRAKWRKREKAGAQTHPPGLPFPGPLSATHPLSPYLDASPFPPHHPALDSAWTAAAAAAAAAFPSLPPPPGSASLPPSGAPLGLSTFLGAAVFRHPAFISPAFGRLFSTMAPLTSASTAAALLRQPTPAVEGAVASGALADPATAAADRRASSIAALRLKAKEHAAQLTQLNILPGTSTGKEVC
GST-ARX (1–220): residues 1-220 of O35085
UniProt Q02248: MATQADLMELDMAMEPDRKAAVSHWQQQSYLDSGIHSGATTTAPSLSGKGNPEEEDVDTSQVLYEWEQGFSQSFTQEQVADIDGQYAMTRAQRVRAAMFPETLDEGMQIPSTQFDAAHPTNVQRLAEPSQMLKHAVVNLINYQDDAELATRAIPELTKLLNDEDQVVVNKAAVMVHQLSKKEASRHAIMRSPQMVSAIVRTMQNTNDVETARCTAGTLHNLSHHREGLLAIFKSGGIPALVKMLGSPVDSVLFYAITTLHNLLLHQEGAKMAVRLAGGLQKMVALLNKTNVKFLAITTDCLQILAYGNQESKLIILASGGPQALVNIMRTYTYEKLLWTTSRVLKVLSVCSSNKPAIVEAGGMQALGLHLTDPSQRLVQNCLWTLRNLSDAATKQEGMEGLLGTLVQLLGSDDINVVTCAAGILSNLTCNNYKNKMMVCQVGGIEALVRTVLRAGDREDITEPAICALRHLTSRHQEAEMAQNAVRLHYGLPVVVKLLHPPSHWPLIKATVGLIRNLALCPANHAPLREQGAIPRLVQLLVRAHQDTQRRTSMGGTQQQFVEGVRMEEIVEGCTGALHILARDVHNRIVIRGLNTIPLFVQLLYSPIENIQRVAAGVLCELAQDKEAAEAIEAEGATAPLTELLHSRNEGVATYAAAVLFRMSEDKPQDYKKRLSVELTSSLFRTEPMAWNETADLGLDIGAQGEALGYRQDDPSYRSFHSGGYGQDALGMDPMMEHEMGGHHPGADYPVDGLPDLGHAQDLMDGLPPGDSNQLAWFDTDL
GST-ΔN89-β-catenin (90–781): residues 90-781 of Q02248
GST-β-catenin (90–694): residues 90-694 of Q02248
GST-ΔN89-β-catenin-D164A (Q02248, form named): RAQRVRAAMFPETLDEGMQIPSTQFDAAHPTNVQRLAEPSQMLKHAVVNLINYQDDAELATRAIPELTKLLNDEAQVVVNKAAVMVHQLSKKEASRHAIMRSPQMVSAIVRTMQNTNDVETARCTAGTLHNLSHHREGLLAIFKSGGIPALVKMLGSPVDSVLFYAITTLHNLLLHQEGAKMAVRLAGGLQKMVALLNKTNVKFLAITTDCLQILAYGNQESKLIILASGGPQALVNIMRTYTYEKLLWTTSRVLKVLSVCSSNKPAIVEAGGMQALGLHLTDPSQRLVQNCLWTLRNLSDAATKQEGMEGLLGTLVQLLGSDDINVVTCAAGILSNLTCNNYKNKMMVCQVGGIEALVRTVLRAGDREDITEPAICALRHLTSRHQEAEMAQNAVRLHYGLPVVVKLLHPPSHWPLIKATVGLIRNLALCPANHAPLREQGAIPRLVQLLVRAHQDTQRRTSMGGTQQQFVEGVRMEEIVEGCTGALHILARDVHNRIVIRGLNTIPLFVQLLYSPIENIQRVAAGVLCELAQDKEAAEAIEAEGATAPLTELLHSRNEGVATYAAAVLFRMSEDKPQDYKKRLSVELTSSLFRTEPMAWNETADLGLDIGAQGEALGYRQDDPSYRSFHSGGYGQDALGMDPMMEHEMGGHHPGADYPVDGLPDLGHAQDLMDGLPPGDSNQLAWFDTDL
UniProt Q09472: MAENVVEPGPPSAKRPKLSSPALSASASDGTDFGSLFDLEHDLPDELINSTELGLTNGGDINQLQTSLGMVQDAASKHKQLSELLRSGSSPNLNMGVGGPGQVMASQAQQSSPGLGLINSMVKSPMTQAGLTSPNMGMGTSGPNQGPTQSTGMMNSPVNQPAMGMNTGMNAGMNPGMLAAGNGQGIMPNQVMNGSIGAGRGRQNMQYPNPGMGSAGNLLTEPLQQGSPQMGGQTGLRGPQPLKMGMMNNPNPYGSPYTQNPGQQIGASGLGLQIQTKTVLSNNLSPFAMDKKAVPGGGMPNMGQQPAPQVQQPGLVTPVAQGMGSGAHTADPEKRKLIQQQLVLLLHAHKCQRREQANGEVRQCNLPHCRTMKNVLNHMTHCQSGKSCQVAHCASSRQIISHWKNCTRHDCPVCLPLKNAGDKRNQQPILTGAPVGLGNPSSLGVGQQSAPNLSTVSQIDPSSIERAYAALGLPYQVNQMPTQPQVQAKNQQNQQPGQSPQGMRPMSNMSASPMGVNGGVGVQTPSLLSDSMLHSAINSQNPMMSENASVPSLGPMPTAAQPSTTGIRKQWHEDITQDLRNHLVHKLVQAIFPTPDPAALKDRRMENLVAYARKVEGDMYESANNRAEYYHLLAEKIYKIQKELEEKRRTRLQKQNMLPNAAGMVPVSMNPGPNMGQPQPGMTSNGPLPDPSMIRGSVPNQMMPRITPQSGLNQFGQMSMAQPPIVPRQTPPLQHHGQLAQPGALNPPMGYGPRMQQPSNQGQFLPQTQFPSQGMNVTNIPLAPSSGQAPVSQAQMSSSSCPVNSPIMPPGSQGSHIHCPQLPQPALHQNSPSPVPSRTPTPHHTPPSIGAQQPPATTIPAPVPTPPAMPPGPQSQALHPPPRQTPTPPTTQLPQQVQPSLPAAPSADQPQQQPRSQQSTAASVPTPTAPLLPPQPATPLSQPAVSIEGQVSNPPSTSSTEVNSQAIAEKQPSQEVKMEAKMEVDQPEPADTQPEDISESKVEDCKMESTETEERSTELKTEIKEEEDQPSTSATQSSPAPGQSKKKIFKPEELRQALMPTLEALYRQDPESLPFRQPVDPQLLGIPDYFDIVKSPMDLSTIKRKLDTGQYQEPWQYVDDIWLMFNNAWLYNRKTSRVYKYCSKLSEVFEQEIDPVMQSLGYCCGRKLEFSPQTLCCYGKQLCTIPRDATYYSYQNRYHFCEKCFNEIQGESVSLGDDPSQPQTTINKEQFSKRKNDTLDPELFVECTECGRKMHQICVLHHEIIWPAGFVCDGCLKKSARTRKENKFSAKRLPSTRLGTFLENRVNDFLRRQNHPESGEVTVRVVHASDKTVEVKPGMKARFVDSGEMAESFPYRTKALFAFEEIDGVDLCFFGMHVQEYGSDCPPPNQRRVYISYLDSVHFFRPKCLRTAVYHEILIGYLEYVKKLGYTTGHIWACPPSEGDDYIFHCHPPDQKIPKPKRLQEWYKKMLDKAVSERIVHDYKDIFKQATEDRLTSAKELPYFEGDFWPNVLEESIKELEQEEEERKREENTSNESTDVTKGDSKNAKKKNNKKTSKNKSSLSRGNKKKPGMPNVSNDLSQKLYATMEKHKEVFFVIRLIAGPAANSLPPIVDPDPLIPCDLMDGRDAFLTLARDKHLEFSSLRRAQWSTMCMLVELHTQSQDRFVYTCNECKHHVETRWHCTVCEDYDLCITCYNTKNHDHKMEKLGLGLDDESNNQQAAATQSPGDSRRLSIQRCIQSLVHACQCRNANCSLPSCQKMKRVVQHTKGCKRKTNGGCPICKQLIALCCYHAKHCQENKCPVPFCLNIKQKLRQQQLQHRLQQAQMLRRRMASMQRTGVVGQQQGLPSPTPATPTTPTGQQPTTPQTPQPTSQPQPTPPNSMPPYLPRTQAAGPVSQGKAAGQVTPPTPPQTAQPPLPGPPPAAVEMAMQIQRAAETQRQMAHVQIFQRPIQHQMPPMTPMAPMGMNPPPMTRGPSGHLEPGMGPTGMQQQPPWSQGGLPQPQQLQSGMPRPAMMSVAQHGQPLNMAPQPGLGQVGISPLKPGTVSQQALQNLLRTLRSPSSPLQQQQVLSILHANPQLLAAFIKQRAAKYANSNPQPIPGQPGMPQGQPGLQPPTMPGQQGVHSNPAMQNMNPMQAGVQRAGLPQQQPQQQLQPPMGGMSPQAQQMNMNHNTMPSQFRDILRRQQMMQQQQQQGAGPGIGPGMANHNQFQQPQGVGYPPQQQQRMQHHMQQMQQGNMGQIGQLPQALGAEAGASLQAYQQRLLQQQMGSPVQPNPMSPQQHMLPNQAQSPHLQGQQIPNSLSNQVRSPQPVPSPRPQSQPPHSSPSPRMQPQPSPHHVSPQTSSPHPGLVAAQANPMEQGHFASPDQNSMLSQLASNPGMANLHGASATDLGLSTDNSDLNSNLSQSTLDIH

[1] = target: Aristaless related homeobox (ARX) protein (mouse (endogenous in E14.5 forebrain)) (UniProt O35085); experiment: co-IP; E14.5 mouse forebrain lysates immunoprecipitated with ARX antibody, Western blot with β-catenin, LRRFIP2 and BCL9 antibodies; IgG control
[2] = target: GST-ΔN89-β-catenin (90–781) (mouse) (UniProt Q02248); experiment: pull-down; GST fusion and partner co-expressed in HEK293T/HEK293 cells, lysed in TNE buffer (20 mM Tris-HCl pH 7.4, 150 mM NaCl, 0.5% Triton X-100, 5% glycerol), glutathione-sepharose 4B 45 min on ice, five washes, Western blot
[3] = target: GST-ΔN89-β-catenin-D164A (mouse) (UniProt Q02248); experiment: as above
[4] = target: GST-β-catenin (1–781) (mouse) (UniProt Q02248); experiment: as above
[5] = target: GST-β-catenin (90–694) (mouse) (UniProt Q02248); experiment: as above
[6] = target: GST-ΔN89-β-catenin-D164A (mouse) (UniProt Q02248); experiment: as above; remark: listed apart in the source

Molecule: ARX (1–470)-MYC (from UniProt O35085 1-470) (domain or fragment)
binding (GST-BCL9): binds

Molecule: ARX (221–430)-MYC (from UniProt O35085 221-430) (domain or fragment)
binding (GST-BCL9): no binding

Molecule: ARX-MYC (full-length ARX) (from UniProt O35085 1-564)
binding (GST-BCL9): binds | binding [2]: binds | binding [3]: binds | binding [4]: binds | binding [5]: binds

B1: BCL9-HA (protein, UniProt Q9D219 1-1425)
chain: T1 sequence
binding [6]: binds weakly

Next, values leading:

binding (GST-ARX (1–220)): no binding | binding (GST-ARX (221–430)): no binding | binding (GST-ARX (WT)): binds
Molecule: P300-HA (from UniProt Q09472 1-2414)

binding [1]: binds
Molecule: β-catenin (CTNNB1) (from UniProt Q02248 1-781)

binding [1]: binds
B2: B-cell CLL/lymphoma 9 (BCL9) (protein, UniProt Q9D219 1-1425)
chain: T1 sequence
